The labels stand for the following.
B1: hemG I53A (protein)
chain: MKTLILFSTRDGQTREIASYLASELKELGIQADVANVHRIEEPQWENYDRVVAGASIRYGHYHSAFQEFVKKHATRLNSMPSAFYSVNLVARKPEKRTPQTNSYARKFLMNSQWRPDRCAVIAGALRYPRYRWYDRFMIKLIMKMSGGETDTRKEVVYTDWEQVANFAREIAHLTDKPTLK
B2: hemG I53Q (protein)
chain: MKTLILFSTRDGQTREIASYLASELKELGIQADVANVHRIEEPQWENYDRVVQGASIRYGHYHSAFQEFVKKHATRLNSMPSAFYSVNLVARKPEKRTPQTNSYARKFLMNSQWRPDRCAVIAGALRYPRYRWYDRFMIKLIMKMSGGETDTRKEVVYTDWEQVANFAREIAHLTDKPTLK
B3: hemG I53W (protein)
chain: MKTLILFSTRDGQTREIASYLASELKELGIQADVANVHRIEEPQWENYDRVVWGASIRYGHYHSAFQEFVKKHATRLNSMPSAFYSVNLVARKPEKRTPQTNSYARKFLMNSQWRPDRCAVIAGALRYPRYRWYDRFMIKLIMKMSGGETDTRKEVVYTDWEQVANFAREIAHLTDKPTLK
B4: hisH I66A (protein)
chain: MNVVILDTGCANLNSVKSAIARHGYEPKVSRDPDVVLLADKLFLPGVGTAQAAMDQVRERELFDLAKACTQPVLGICLGMQLLGRRSEESNGVDLLGIIDEDVPKMTDFGLPLPHMGWNRVYPQAGNRLFQGIEDGAYFYFVHSYAMPVNPWTIAQCNYGEPFTAAVQKDNFYGVQFHPERSGAAGAKLLKNFLEM
B5: argG L364Q (protein)
chain: MTTILKHLPVGQRIGIAFSGGLDTSAALLWMRQKGAVPYAYTANLGQPDEEDYDAIPRRAMEYGAENARLIDCRKQLVAEGIAAIQCGAFHNTTGGLTYFNTTPLGRAVTGTMLVAAMKEDGVNIWGDGSTYKGNDIERFYRYGLLTNAELQIYKPWLDTDFIDELGGRHEMSEFMIACGFDYKMSVEKAYSTDSNMLGATHEAKDLEYLNSSVKIVNPIMGVKFWDESVKIPAEEVTVRFEQGHPVALNGKTFSDDVEMMLEANRIGGRHGLGMSDQIENRIIEAKSRGIYEAPGMALLHIAYERLLTGIHNEDTIEQYHAHGRQLGRLLYQGRWFDSQALMLRDSLQRWVASQITGEVTLEQRRGNDYSILNTVSENLTYKPERLTMEKGDSVFSPDDRIGQLTMRNLDITDTREKLFGYAKTGLLSSSAASGVPQVENLENKGQ
B6: hisI W112A (protein)
chain: MLTEQQRRELDWEKTDGLMPVIVQHAVSGEVLMLGYMNPEALDKTLESGKVTFFSRTKQRLWTKGETSGNFLNVVSIAPDCDNDTLLVLANPIGPTCHKGTSSCFGDTAHQALFLYQLEQLLAERKSADPETSYTAKLYASGTKRIAQKVGEEGVETALAATVHDRFELTNEASDLMYHLLVLLQDQGLDLTTVIENLRKRHQ
B7: hisI F114Q (protein)
chain: MLTEQQRRELDWEKTDGLMPVIVQHAVSGEVLMLGYMNPEALDKTLESGKVTFFSRTKQRLWTKGETSGNFLNVVSIAPDCDNDTLLVLANPIGPTCHKGTSSCFGDTAHQWLQLYQLEQLLAERKSADPETSYTAKLYASGTKRIAQKVGEEGVETALAATVHDRFELTNEASDLMYHLLVLLQDQGLDLTTVIENLRKRHQ
B8: hisI W112D (protein)
chain: MLTEQQRRELDWEKTDGLMPVIVQHAVSGEVLMLGYMNPEALDKTLESGKVTFFSRTKQRLWTKGETSGNFLNVVSIAPDCDNDTLLVLANPIGPTCHKGTSSCFGDTAHQDLFLYQLEQLLAERKSADPETSYTAKLYASGTKRIAQKVGEEGVETALAATVHDRFELTNEASDLMYHLLVLLQDQGLDLTTVIENLRKRHQ
B9: hemL V206W (protein)
chain: MSKSENLYSAARELIPGGVNSPVRAFTGVGGTPLFIEKADGAYLYDVDGKAYIDYVGSWGPMVLGHNHPAIRNAVIEAAERGLSFGAPTEMEVKMAQLVTELVPTMDMVRMVNSGTEATMSAIRLARGFTGRDKIIKFEGCYHGHADCLLVKAGSGALTLGQPNSPGVPADFAKYTLTCTYNDLASVRAAFEQYPQEIACIIVEPWAGNMNCVPPLPEFLPGLRALCDEFGALLIIDEVMTGFRVALAGAQDYYGVVPDLTCLGKIIGGGMPVGAFGGRRDVMDALAPTGPVYQAGTLSGNPIAMAAGFACLNEVAQPGVHETLDELTTRLAEGLLEAAEEAGIPLVVNHVGGMFGIFFTDAESVTCYQDVMACDVERFKRFFHMMLDEGVYLAPSAFEAGFMSVAHSMEDINNTIDAARRVFAKL
B10: hemL V99P (protein)
chain: MSKSENLYSAARELIPGGVNSPVRAFTGVGGTPLFIEKADGAYLYDVDGKAYIDYVGSWGPMVLGHNHPAIRNAVIEAAERGLSFGAPTEMEVKMAQLPTELVPTMDMVRMVNSGTEATMSAIRLARGFTGRDKIIKFEGCYHGHADCLLVKAGSGALTLGQPNSPGVPADFAKYTLTCTYNDLASVRAAFEQYPQEIACIIVEPVAGNMNCVPPLPEFLPGLRALCDEFGALLIIDEVMTGFRVALAGAQDYYGVVPDLTCLGKIIGGGMPVGAFGGRRDVMDALAPTGPVYQAGTLSGNPIAMAAGFACLNEVAQPGVHETLDELTTRLAEGLLEAAEEAGIPLVVNHVGGMFGIFFTDAESVTCYQDVMACDVERFKRFFHMMLDEGVYLAPSAFEAGFMSVAHSMEDINNTIDAARRVFAKL
B11: hemL V206P (protein)
chain: MSKSENLYSAARELIPGGVNSPVRAFTGVGGTPLFIEKADGAYLYDVDGKAYIDYVGSWGPMVLGHNHPAIRNAVIEAAERGLSFGAPTEMEVKMAQLVTELVPTMDMVRMVNSGTEATMSAIRLARGFTGRDKIIKFEGCYHGHADCLLVKAGSGALTLGQPNSPGVPADFAKYTLTCTYNDLASVRAAFEQYPQEIACIIVEPPAGNMNCVPPLPEFLPGLRALCDEFGALLIIDEVMTGFRVALAGAQDYYGVVPDLTCLGKIIGGGMPVGAFGGRRDVMDALAPTGPVYQAGTLSGNPIAMAAGFACLNEVAQPGVHETLDELTTRLAEGLLEAAEEAGIPLVVNHVGGMFGIFFTDAESVTCYQDVMACDVERFKRFFHMMLDEGVYLAPSAFEAGFMSVAHSMEDINNTIDAARRVFAKL
B12: argH M246Q (protein)
chain: MALWGGRFTQAADQRFKQFNDSLRFDYRLAEQDIVGSVAWSKALVTVGVLTAEEQAQLEEALNVLLEDVRARPQQILESDAEDIHSWVEGKLIDKVGQLGKKLHTGRSRNDQVATDLKLWCKDTVSELLTANRQLQSALVETAQNNQDAVMPGYTHLQRAQPVTFAHWCLAYVEMLARDESRLQDALKRLDVSPLGCGALAGTAYEIDREQLAGWLGFASATRNSLDSVSDRDHVLELLSAAAIGQVHLSRFAEDLIFFNTGEAGFVELSDRVTSGSSLMPQKKNPDALELIRGKCGRVQGALTGMMMTLKGLPLAYNKDMQEDKEGLFDALDTWLDCLHMAALVLDGIQVKRPRCQEAAQQGYANATELADYLVAKGVPFREAHHIVGEAVVEAIRQGKPLEDLPLSELQKFSQVIDEDVYPILSLQSCLDKRAAKGGVSPQQVAQAIAFAQARLG
B13: argH F259D (protein)
chain: MALWGGRFTQAADQRFKQFNDSLRFDYRLAEQDIVGSVAWSKALVTVGVLTAEEQAQLEEALNVLLEDVRARPQQILESDAEDIHSWVEGKLIDKVGQLGKKLHTGRSRNDQVATDLKLWCKDTVSELLTANRQLQSALVETAQNNQDAVMPGYTHLQRAQPVTFAHWCLAYVEMLARDESRLQDALKRLDVSPLGCGALAGTAYEIDREQLAGWLGFASATRNSLDSVSDRDHVLELLSAAAIGMVHLSRFAEDLIFDNTGEAGFVELSDRVTSGSSLMPQKKNPDALELIRGKCGRVQGALTGMMMTLKGLPLAYNKDMQEDKEGLFDALDTWLDCLHMAALVLDGIQVKRPRCQEAAQQGYANATELADYLVAKGVPFREAHHIVGEAVVEAIRQGKPLEDLPLSELQKFSQVIDEDVYPILSLQSCLDKRAAKGGVSPQQVAQAIAFAQARLG
B14: hisG I217W (protein)
chain: MTDNTRLRIAMQKSGRLSDDSRELLARCGIKINLHTQRLIAMAENMPIDILRVRDDDIPGLVMDGVVDLGIIGENVLEEELLNRRAQGEDPRYFTLRRLDFGGCRLSLATPVDEAWDGPLSLNGKRIATSYPHLLKRYLDQKGISFKSCLLNGSVEVAPRAGLADAICDLVSTGATLEANGLREVEVIYRSKACLIQRDGEMEESKQQLIDKLLTRWQGVIQARESKYIMMHAPTERLDEVIALLPGAERPTILPLAGDQQRVAMHMVSSETLFWETMEKLKALGASSILVLPIEKMME
B15: hisF V127A (protein)
chain: MLAKRIIPCLDVRDGQVVKGVQFRNHEIIGDIVPLAKRYAEEGADELVFYDITASSDGRVVDKSWVSRVAEVIDIPFCVAGGIKSLEDAAKILSFGADKISINSPALADPTLITRLADRFGVQCIVAGIDTWYDAETGKYHVNQYTGDESRTRVTQWETLDWVQEVQKRGAGEIVLNMMNQDGVRNGYDLEQLKKVREVCHVPLIASGGAGTMEHFLEAFRDADVDGALAASVFHKQIINIGELKAYLATQGVEIRIC
B16: hisF L176A (protein)
chain: MLAKRIIPCLDVRDGQVVKGVQFRNHEIIGDIVPLAKRYAEEGADELVFYDITASSDGRVVDKSWVSRVAEVIDIPFCVAGGIKSLEDAAKILSFGADKISINSPALADPTLITRLADRFGVQCIVVGIDTWYDAETGKYHVNQYTGDESRTRVTQWETLDWVQEVQKRGAGEIVANMMNQDGVRNGYDLEQLKKVREVCHVPLIASGGAGTMEHFLEAFRDADVDGALAASVFHKQIINIGELKAYLATQGVEIRIC

From the supplement of paper PMC11876631 come the findings set out here.

± gives the standard deviation of the averaged measurements. Laboratory Escherichia coli strains with one amino-acid change in an essential protein, pooled on minimal glucose agar with carbenicillin or gentamicin at twice the control MIC (plus kanamycin and chloramphenicol for the plasmids), 48 h. Fold change of barcode share against drug-free plates; higher = less susceptible. Active = above 20 in both replicates (the paper's putatively resistant). '<' = one read or none on drug, '>' = one read or none on a drug-free plate. Shares are relative, so most strains fall below 1 when a few take over. Listed are strains with at least 15 reads on both drug-free plates, and hits; most hits rest on fewer reference reads. Replicate rank correlation about 0.5. Edits are read from barcodes. A value given as a limit tells only on which side of the number the result lay.

The data set deals with Escherichia coli (laboratory strain). The data set can be described thus: barcode share on antibiotic plates over drug-free plates; higher = less susceptible. The note with it: antibiotic: gentamicin; 2× MIC (MIC 0.45 µg/mL). The procedure: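 A pool of E. coli strains, each edited to carry one amino-acid change in an essential protein, was grown for 48 h on minimal glucose agar with or without antibiotic; strain barcodes were sequenced; mean of two replicates.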
As to B1, the “fold change of barcode share” value stood at 0.014 ± 0.013.
For the protein B2, the “fold change of barcode share” value worked out at 7.35 ± 2.4.
The figure for B3 is > 36.3 [active].
In the case of B4 it was less than 0.0163.
In the case of B5 it was less than 0.0163; in that of B6, 0.0133 ± 0.005.
For the protein B7, the “fold change of barcode share” value is less than 0.018.
Take B8: the “fold change of barcode share” value stood at 0.0259 ± 0.027.
The figure for B9 is > 6870 [active].
In the case of B10 it was less than 0.0164; in that of B11, > 39.9 [active].
The figure for B12 is less than 0.0172.
Turning to B13, the “fold change of barcode share” value was less than 0.0128.
The figure for B14 is less than 0.0195.
Take B15: the “fold change of barcode share” value was less than 0.0172.
In the case of B16 it was 0.0659 ± 0.038.
